Laboratory results taken from publication PMC8719716.
These are yes or no findings as the source states them, for the method shown. Binding seen in cells or lysates may run through a third protein. Some entries that bind do so weakly or less than the wild type. For some of these results: Where a sequence is shown, tags or fusion partners need not be part of it. One block for each molecule: values may come before it.

The chains behind the UniProt entries cited, without tags or fusion partners.
UniProt P70032: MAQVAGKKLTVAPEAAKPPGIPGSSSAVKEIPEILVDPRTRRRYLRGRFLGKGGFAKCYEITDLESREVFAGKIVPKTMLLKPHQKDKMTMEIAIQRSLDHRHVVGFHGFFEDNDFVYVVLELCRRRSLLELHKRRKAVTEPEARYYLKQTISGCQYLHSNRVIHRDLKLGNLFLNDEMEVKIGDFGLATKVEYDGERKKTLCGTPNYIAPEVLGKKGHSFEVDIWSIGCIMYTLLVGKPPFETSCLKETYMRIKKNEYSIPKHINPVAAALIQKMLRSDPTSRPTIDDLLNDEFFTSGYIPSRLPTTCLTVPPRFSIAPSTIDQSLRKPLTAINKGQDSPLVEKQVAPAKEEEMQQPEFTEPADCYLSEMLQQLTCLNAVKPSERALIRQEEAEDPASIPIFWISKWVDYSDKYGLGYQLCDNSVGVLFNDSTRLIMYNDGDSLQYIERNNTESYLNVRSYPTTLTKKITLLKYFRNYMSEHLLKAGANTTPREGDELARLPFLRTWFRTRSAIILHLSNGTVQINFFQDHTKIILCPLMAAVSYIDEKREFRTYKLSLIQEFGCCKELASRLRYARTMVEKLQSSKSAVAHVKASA

Tests used:
Assay in all cases: co-IP; Xenopus embryos injected with mRNAs at the one-cell stage, harvested at stages 11–12, lysed in TNSG buffer (50 mM Tris-HCl pH 7.4, 150 mM NaCl, 1% NP-40, 10% glycerol) with protease and phosphatase inhibitors; anti-V5, anti-Flag M2 or anti-HA agarose, 6–8 h at 4°C; reciprocal
[1] = target: T1, X. laevis CEP97 WT, exogenous, tag not named for the experiment (X. laevis) (UniProt Q6GPJ8)
T1 sequence: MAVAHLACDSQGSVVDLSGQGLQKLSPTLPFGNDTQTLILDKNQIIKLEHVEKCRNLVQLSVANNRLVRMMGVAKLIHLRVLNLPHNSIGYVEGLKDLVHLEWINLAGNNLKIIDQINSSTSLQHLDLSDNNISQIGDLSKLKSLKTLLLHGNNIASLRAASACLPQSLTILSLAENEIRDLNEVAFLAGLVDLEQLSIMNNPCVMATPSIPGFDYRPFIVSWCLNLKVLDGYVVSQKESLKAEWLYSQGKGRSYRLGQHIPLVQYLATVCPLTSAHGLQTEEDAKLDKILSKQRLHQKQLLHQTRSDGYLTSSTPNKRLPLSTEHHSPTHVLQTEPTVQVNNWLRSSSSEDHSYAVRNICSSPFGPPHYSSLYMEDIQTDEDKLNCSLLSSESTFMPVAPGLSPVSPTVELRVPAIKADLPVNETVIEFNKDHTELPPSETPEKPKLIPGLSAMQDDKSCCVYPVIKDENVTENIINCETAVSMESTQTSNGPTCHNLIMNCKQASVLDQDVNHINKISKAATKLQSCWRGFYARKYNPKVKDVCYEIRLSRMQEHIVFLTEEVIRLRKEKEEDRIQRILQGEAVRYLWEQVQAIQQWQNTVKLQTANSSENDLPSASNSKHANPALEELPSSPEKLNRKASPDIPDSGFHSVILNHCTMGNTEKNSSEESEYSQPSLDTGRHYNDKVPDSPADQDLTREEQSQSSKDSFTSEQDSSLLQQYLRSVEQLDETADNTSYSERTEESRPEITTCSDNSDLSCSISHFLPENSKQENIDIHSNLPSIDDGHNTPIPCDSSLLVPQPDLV

[2] = target: T2, X. laevis CEP97 phosphomimetic mutant (SD; S634D, S643D, S649D, and S653D) (X. laevis) (UniProt Q6GPJ8)
T2 sequence: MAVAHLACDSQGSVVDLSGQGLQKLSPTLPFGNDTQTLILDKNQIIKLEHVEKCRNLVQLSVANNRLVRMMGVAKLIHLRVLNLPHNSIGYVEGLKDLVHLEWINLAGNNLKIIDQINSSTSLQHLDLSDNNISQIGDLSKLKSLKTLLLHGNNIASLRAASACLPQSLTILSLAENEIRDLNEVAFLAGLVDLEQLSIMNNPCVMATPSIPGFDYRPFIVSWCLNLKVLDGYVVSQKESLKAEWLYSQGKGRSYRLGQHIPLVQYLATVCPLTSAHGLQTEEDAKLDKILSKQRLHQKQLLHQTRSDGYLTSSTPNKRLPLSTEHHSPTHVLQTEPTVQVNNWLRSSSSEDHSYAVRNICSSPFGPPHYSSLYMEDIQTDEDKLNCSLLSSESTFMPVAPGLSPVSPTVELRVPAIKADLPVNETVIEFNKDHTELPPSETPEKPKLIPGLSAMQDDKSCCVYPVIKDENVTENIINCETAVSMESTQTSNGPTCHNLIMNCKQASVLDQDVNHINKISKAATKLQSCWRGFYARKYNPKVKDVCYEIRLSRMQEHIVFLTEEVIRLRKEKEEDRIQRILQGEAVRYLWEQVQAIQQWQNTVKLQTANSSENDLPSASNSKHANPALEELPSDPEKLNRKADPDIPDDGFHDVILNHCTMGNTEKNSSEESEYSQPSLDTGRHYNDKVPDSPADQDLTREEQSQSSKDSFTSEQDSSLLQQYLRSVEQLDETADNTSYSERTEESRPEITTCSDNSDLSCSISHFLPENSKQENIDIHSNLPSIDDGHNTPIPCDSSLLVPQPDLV

[3] = target: T3, X. laevis CEP97 Δ541–565 (X. laevis) (UniProt Q6GPJ8)
T3 sequence: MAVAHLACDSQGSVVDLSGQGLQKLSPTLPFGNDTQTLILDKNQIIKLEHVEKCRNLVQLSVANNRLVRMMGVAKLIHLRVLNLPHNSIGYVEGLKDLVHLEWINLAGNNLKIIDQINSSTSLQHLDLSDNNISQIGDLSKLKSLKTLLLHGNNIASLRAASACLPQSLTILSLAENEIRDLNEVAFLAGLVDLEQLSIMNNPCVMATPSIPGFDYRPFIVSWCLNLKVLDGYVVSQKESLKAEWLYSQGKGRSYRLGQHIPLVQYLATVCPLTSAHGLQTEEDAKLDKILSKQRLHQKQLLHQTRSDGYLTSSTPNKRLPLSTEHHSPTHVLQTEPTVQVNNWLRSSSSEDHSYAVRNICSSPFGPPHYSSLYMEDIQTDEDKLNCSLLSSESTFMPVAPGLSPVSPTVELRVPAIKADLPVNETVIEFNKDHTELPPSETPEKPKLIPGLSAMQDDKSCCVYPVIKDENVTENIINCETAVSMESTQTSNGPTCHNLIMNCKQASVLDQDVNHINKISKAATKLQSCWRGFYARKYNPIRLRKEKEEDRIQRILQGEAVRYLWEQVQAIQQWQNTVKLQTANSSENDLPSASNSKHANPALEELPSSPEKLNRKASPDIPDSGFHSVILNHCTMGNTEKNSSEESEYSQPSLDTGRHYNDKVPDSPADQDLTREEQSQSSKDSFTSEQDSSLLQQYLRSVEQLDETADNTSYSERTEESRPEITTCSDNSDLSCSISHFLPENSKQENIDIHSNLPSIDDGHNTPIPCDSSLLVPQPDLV

[4] = target: T4, X. laevis CEP97, V5-tagged (X. laevis) (UniProt Q6GPJ8)
T4 sequence: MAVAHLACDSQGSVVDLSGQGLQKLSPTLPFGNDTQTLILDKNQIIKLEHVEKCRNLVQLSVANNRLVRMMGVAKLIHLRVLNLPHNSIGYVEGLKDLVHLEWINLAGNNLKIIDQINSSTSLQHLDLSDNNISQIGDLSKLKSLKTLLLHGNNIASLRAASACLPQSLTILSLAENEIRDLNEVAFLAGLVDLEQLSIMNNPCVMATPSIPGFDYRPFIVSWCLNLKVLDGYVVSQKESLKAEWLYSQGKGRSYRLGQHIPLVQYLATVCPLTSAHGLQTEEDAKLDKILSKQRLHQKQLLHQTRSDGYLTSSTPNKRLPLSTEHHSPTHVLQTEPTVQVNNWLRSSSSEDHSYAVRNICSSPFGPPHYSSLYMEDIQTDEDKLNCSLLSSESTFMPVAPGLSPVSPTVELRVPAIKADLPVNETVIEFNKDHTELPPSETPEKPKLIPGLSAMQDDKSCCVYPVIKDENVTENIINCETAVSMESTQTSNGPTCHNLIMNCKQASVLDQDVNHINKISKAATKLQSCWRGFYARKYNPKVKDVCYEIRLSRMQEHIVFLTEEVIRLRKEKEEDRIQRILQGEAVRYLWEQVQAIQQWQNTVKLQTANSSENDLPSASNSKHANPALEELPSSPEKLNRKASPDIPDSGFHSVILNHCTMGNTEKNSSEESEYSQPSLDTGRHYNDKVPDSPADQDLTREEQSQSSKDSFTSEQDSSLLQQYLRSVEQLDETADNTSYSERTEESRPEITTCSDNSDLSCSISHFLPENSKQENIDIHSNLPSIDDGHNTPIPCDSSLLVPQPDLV

[5] = target: T5, X. laevis CEP97 Δ516–540 (X. laevis) (UniProt Q6GPJ8)
T5 sequence: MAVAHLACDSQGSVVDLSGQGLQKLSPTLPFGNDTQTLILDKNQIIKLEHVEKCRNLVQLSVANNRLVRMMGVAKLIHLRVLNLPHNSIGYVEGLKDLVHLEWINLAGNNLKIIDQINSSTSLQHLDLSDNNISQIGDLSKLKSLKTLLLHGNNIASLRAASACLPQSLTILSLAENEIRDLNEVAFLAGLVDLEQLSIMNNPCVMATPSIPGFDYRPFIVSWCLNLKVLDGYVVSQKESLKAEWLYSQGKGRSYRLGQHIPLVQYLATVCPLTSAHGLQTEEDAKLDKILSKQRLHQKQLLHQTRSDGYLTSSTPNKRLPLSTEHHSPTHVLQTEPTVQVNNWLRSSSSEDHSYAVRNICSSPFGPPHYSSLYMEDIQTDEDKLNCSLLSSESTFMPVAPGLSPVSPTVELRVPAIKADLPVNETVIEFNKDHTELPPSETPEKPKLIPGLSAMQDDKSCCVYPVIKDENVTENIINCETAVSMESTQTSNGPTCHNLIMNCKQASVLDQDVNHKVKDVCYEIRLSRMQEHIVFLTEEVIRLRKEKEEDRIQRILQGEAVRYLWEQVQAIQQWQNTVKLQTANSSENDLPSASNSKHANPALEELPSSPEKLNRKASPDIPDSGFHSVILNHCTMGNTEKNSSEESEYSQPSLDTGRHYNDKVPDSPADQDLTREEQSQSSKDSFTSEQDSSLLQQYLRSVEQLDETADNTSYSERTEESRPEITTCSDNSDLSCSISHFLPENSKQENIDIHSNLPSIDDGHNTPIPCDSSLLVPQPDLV

[6] = target: X. laevis Dyrk1a, Flag-tagged (X. laevis) (UniProt Q2TAE3)

binding [1]: binds | binding [2]: binds | binding [3]: no binding
Molecule: X. laevis Plk1 WT, exogenous, tag not named for the experiment (from UniProt P70032 1-598) (enzyme)

binding [4]: binds
Molecule: X. laevis Dyrk1a, Flag-tagged (from UniProt Q2TAE3 1-750) (enzyme)

binding [1]: binds | binding [5]: binds
Molecule: X. laevis Dyrk1a WT, exogenous, tag not named for the experiment (from UniProt Q2TAE3 1-750) (enzyme)

binding [6]: binds
B1: X. laevis CEP97, V5-tagged (protein, UniProt Q6GPJ8 1-807)
chain: MAVAHLACDSQGSVVDLSGQGLQKLSPTLPFGNDTQTLILDKNQIIKLEHVEKCRNLVQLSVANNRLVRMMGVAKLIHLRVLNLPHNSIGYVEGLKDLVHLEWINLAGNNLKIIDQINSSTSLQHLDLSDNNISQIGDLSKLKSLKTLLLHGNNIASLRAASACLPQSLTILSLAENEIRDLNEVAFLAGLVDLEQLSIMNNPCVMATPSIPGFDYRPFIVSWCLNLKVLDGYVVSQKESLKAEWLYSQGKGRSYRLGQHIPLVQYLATVCPLTSAHGLQTEEDAKLDKILSKQRLHQKQLLHQTRSDGYLTSSTPNKRLPLSTEHHSPTHVLQTEPTVQVNNWLRSSSSEDHSYAVRNICSSPFGPPHYSSLYMEDIQTDEDKLNCSLLSSESTFMPVAPGLSPVSPTVELRVPAIKADLPVNETVIEFNKDHTELPPSETPEKPKLIPGLSAMQDDKSCCVYPVIKDENVTENIINCETAVSMESTQTSNGPTCHNLIMNCKQASVLDQDVNHINKISKAATKLQSCWRGFYARKYNPKVKDVCYEIRLSRMQEHIVFLTEEVIRLRKEKEEDRIQRILQGEAVRYLWEQVQAIQQWQNTVKLQTANSSENDLPSASNSKHANPALEELPSSPEKLNRKASPDIPDSGFHSVILNHCTMGNTEKNSSEESEYSQPSLDTGRHYNDKVPDSPADQDLTREEQSQSSKDSFTSEQDSSLLQQYLRSVEQLDETADNTSYSERTEESRPEITTCSDNSDLSCSISHFLPENSKQENIDIHSNLPSIDDGHNTPIPCDSSLLVPQPDLV
